Source: PMC12820563, “FoxP3 forms a head-to-head dimer in vivo and stabilizes its multimerization on adjacent microsatellites”
The list shows a part of the results.

Target: T1, MBP-FoxP1dN (Mus musculus, UniProt P58462 326-579)
T1 sequence: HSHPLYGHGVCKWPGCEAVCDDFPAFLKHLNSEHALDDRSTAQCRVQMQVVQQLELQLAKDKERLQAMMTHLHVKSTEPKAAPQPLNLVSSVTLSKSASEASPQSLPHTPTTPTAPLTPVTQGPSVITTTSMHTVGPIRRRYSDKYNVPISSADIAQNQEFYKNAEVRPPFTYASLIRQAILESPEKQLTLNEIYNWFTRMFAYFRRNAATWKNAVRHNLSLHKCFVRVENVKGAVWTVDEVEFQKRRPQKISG
Experiment: PD-seq (MBP pull-down with sequencing); 20 mM Tris-HCl pH 7.5, 100 mM NaCl, 1.5 mM MgCl2, 0.4 uM protein, 0.1 uM dsDNA library, 30 min, room temperature, amylose pull-down; high values mean tight binding
Settings: protein: recombinant; tags: His6-MBP; chain copies: 2; dsDNA, one strand shown
Summary of the method: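 Binding is the reads-per-million enrichment of pull-down relative to input, pooled across replicates. For this, 0.4 µM His6-MBP-tagged mouse FoxP3 or FoxP1 fragment lacking the N-terminus, made in E. coli, was incubated with 0.1 µM Klenow-filled double-stranded degenerate DNA library for 30 min at room temperature in Tris pH 7.5 buffer with NaCl and MgCl2. Complexes bound to amylose resin were washed three times before proteinase K released the DNA for PCR barcoding and Illumina sequencing.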

Sequence | binding signal
GATGATTGTTCTCCCAGCTGATGAATTAATTGTCTCGAGTAAACAAATTTTCCTAATCTTTCTGTTCAAGCGCCATCTAC | 1.05 RPM ratio (pull-down/input)
GATGATTGTTCTCCCAGCTGATGAATTGTCTCGGTCGAGTAAACAAATTTTCCTAATCTTTCTGTTCAAGCGCCATCTAC | 0.95 RPM ratio (pull-down/input)
GATGATTGTTCTCCCAGCTGATGAATTTGATTTGTCGAGTAAACAAATTTTCCTAATCTTTCTGTTCAAGCGCCATCTAC | 1.11 RPM ratio (pull-down/input)
GATGATTGTTCTCCCAGCTGATGAATTGGGGGCCTCGAGTAAACAAATTTTCCTAATCTTTCTGTTCAAGCGCCATCTAC | 0.781 RPM ratio (pull-down/input)
GATGATTGTTCTCCCAGCTGATGAATTACTCAAGTCGAGTAAACAAATTTTCCTAATCTTTCTGTTCAAGCGCCATCTAC | 1.02 RPM ratio (pull-down/input)
GATGATTGTTCTCCCAGCTGATGAATTTGCCTTATCGAGTAAACAAATTTTCCTAATCTTTCTGTTCAAGCGCCATCTAC | 1.05 RPM ratio (pull-down/input)
GATGATTGTTCTCCCAGCTGATGAATTCGAGCCGTCGAGTAAACAAATTTTCCTAATCTTTCTGTTCAAGCGCCATCTAC | 0.827 RPM ratio (pull-down/input)
GATGATTGTTCTCCCAGCTGATGAATTCCGAGATTCGAGTAAACAAATTTTCCTAATCTTTCTGTTCAAGCGCCATCTAC | 0.799 RPM ratio (pull-down/input)
GATGATTGTTCTCCCAGCTGATGAATTGACGGAGTCGAGTAAACAAATTTTCCTAATCTTTCTGTTCAAGCGCCATCTAC | 0.914 RPM ratio (pull-down/input)
GATGATTGTTCTCCCAGCTGATGAATTGTGCCTTTCGAGTAAACAAATTTTCCTAATCTTTCTGTTCAAGCGCCATCTAC | 1.1 RPM ratio (pull-down/input)
GATGATTGTTCTCCCAGCTGATGAATTTTTCGAATCGAGTAAACAAATTTTCCTAATCTTTCTGTTCAAGCGCCATCTAC | 0.937 RPM ratio (pull-down/input)
GATGATTGTTCTCCCAGCTGATGAATTAAGGTAGTCGAGTAAACAAATTTTCCTAATCTTTCTGTTCAAGCGCCATCTAC | 0.878 RPM ratio (pull-down/input)
GATGATTGTTCTCCCAGCTGATGAATTGTCGGCATCGAGTAAACAAATTTTCCTAATCTTTCTGTTCAAGCGCCATCTAC | 1.12 RPM ratio (pull-down/input)
GATGATTGTTCTCCCAGCTGATGAATTTATTATGTCGAGTAAACAAATTTTCCTAATCTTTCTGTTCAAGCGCCATCTAC | 1.4 RPM ratio (pull-down/input)
GATGATTGTTCTCCCAGCTGATGAATTGTAGGGATCGAGTAAACAAATTTTCCTAATCTTTCTGTTCAAGCGCCATCTAC | 0.87 RPM ratio (pull-down/input)
GATGATTGTTCTCCCAGCTGATGAATTCTCTGTATCGAGTAAACAAATTTTCCTAATCTTTCTGTTCAAGCGCCATCTAC | 0.938 RPM ratio (pull-down/input)
GATGATTGTTCTCCCAGCTGATGAATTATCAATGTCGAGTAAACAAATTTTCCTAATCTTTCTGTTCAAGCGCCATCTAC | 1.03 RPM ratio (pull-down/input)
GATGATTGTTCTCCCAGCTGATGAATTGTTCTCCTCGAGTAAACAAATTTTCCTAATCTTTCTGTTCAAGCGCCATCTAC | 1.17 RPM ratio (pull-down/input)
GATGATTGTTCTCCCAGCTGATGAATTAGTTTCTTCGAGTAAACAAATTTTCCTAATCTTTCTGTTCAAGCGCCATCTAC | 0.994 RPM ratio (pull-down/input)
GATGATTGTTCTCCCAGCTGATGAATTGGTCGCGTCGAGTAAACAAATTTTCCTAATCTTTCTGTTCAAGCGCCATCTAC | 1.03 RPM ratio (pull-down/input)
GATGATTGTTCTCCCAGCTGATGAATTGCTGAGGTCGAGTAAACAAATTTTCCTAATCTTTCTGTTCAAGCGCCATCTAC | 0.892 RPM ratio (pull-down/input)

Sequence | binding signal
GATGATTGTTCTCCCAGCTGATGAATTAATGTGATCGAGTAAACAAATTTTCCTAATCTTTCTGTTCAAGCGCCATCTAC | 1.17 RPM ratio (pull-down/input)
GATGATTGTTCTCCCAGCTGATGAATTGCTTTAATCGAGTAAACAAATTTTCCTAATCTTTCTGTTCAAGCGCCATCTAC | 1.16 RPM ratio (pull-down/input)
GATGATTGTTCTCCCAGCTGATGAATTGTACTACTCGAGTAAACAAATTTTCCTAATCTTTCTGTTCAAGCGCCATCTAC | 0.971 RPM ratio (pull-down/input)
GATGATTGTTCTCCCAGCTGATGAATTAATAGTCTCGAGTAAACAAATTTTCCTAATCTTTCTGTTCAAGCGCCATCTAC | 0.952 RPM ratio (pull-down/input)
GATGATTGTTCTCCCAGCTGATGAATTGTCCGTTTCGAGTAAACAAATTTTCCTAATCTTTCTGTTCAAGCGCCATCTAC | 0.981 RPM ratio (pull-down/input)
GATGATTGTTCTCCCAGCTGATGAATTGATTCTATCGAGTAAACAAATTTTCCTAATCTTTCTGTTCAAGCGCCATCTAC | 1.07 RPM ratio (pull-down/input)
GATGATTGTTCTCCCAGCTGATGAATTAGGTAGCTCGAGTAAACAAATTTTCCTAATCTTTCTGTTCAAGCGCCATCTAC | 0.899 RPM ratio (pull-down/input)
GATGATTGTTCTCCCAGCTGATGAATTTAACAGGTCGAGTAAACAAATTTTCCTAATCTTTCTGTTCAAGCGCCATCTAC | 0.809 RPM ratio (pull-down/input)
GATGATTGTTCTCCCAGCTGATGAATTTGTAGTATCGAGTAAACAAATTTTCCTAATCTTTCTGTTCAAGCGCCATCTAC | 1.47 RPM ratio (pull-down/input)
GATGATTGTTCTCCCAGCTGATGAATTAGGAAGTTCGAGTAAACAAATTTTCCTAATCTTTCTGTTCAAGCGCCATCTAC | 0.873 RPM ratio (pull-down/input)
GATGATTGTTCTCCCAGCTGATGAATTATGCCCCTCGAGTAAACAAATTTTCCTAATCTTTCTGTTCAAGCGCCATCTAC | 0.922 RPM ratio (pull-down/input)
GATGATTGTTCTCCCAGCTGATGAATTCTCCCCATCGAGTAAACAAATTTTCCTAATCTTTCTGTTCAAGCGCCATCTAC | 0.961 RPM ratio (pull-down/input)
GATGATTGTTCTCCCAGCTGATGAATTACATATATCGAGTAAACAAATTTTCCTAATCTTTCTGTTCAAGCGCCATCTAC | 1.34 RPM ratio (pull-down/input)
GATGATTGTTCTCCCAGCTGATGAATTTTCTTAGTCGAGTAAACAAATTTTCCTAATCTTTCTGTTCAAGCGCCATCTAC | 0.92 RPM ratio (pull-down/input)
GATGATTGTTCTCCCAGCTGATGAATTTAAGTTGTCGAGTAAACAAATTTTCCTAATCTTTCTGTTCAAGCGCCATCTAC | 1.36 RPM ratio (pull-down/input)
GATGATTGTTCTCCCAGCTGATGAATTTGCGAAATCGAGTAAACAAATTTTCCTAATCTTTCTGTTCAAGCGCCATCTAC | 1.2 RPM ratio (pull-down/input)
GATGATTGTTCTCCCAGCTGATGAATTTCGCGTATCGAGTAAACAAATTTTCCTAATCTTTCTGTTCAAGCGCCATCTAC | 0.994 RPM ratio (pull-down/input)
GATGATTGTTCTCCCAGCTGATGAATTGTAACGATCGAGTAAACAAATTTTCCTAATCTTTCTGTTCAAGCGCCATCTAC | 1.03 RPM ratio (pull-down/input)
GATGATTGTTCTCCCAGCTGATGAATTAGCGTGATCGAGTAAACAAATTTTCCTAATCTTTCTGTTCAAGCGCCATCTAC | 0.955 RPM ratio (pull-down/input)
GATGATTGTTCTCCCAGCTGATGAATTGACATGGTCGAGTAAACAAATTTTCCTAATCTTTCTGTTCAAGCGCCATCTAC | 1.07 RPM ratio (pull-down/input)
GATGATTGTTCTCCCAGCTGATGAATTACTTTTATCGAGTAAACAAATTTTCCTAATCTTTCTGTTCAAGCGCCATCTAC | 1.14 RPM ratio (pull-down/input)

Sequence | binding signal
GATGATTGTTCTCCCAGCTGATGAATTCGTGCCCTCGAGTAAACAAATTTTCCTAATCTTTCTGTTCAAGCGCCATCTAC | 0.801 RPM ratio (pull-down/input)
GATGATTGTTCTCCCAGCTGATGAATTCAATTCCTCGAGTAAACAAATTTTCCTAATCTTTCTGTTCAAGCGCCATCTAC | 0.811 RPM ratio (pull-down/input)
GATGATTGTTCTCCCAGCTGATGAATTAGTCAAATCGAGTAAACAAATTTTCCTAATCTTTCTGTTCAAGCGCCATCTAC | 0.986 RPM ratio (pull-down/input)
GATGATTGTTCTCCCAGCTGATGAATTCGACCGTTCGAGTAAACAAATTTTCCTAATCTTTCTGTTCAAGCGCCATCTAC | 0.813 RPM ratio (pull-down/input)
GATGATTGTTCTCCCAGCTGATGAATTGACAGGTTCGAGTAAACAAATTTTCCTAATCTTTCTGTTCAAGCGCCATCTAC | 1.15 RPM ratio (pull-down/input)
GATGATTGTTCTCCCAGCTGATGAATTCCAGAGATCGAGTAAACAAATTTTCCTAATCTTTCTGTTCAAGCGCCATCTAC | 0.86 RPM ratio (pull-down/input)
GATGATTGTTCTCCCAGCTGATGAATTTCTTTTATCGAGTAAACAAATTTTCCTAATCTTTCTGTTCAAGCGCCATCTAC | 1.03 RPM ratio (pull-down/input)
GATGATTGTTCTCCCAGCTGATGAATTGGCAAATTCGAGTAAACAAATTTTCCTAATCTTTCTGTTCAAGCGCCATCTAC | 1.01 RPM ratio (pull-down/input)
GATGATTGTTCTCCCAGCTGATGAATTCATGTAGTCGAGTAAACAAATTTTCCTAATCTTTCTGTTCAAGCGCCATCTAC | 1.11 RPM ratio (pull-down/input)
GATGATTGTTCTCCCAGCTGATGAATTGAACCGATCGAGTAAACAAATTTTCCTAATCTTTCTGTTCAAGCGCCATCTAC | 0.832 RPM ratio (pull-down/input)
GATGATTGTTCTCCCAGCTGATGAATTGGACAGGTCGAGTAAACAAATTTTCCTAATCTTTCTGTTCAAGCGCCATCTAC | 0.761 RPM ratio (pull-down/input)
GATGATTGTTCTCCCAGCTGATGAATTTTTTTCGTCGAGTAAACAAATTTTCCTAATCTTTCTGTTCAAGCGCCATCTAC | 0.988 RPM ratio (pull-down/input)
GATGATTGTTCTCCCAGCTGATGAATTAAGTCACTCGAGTAAACAAATTTTCCTAATCTTTCTGTTCAAGCGCCATCTAC | 1.06 RPM ratio (pull-down/input)
GATGATTGTTCTCCCAGCTGATGAATTCAGGGGCTCGAGTAAACAAATTTTCCTAATCTTTCTGTTCAAGCGCCATCTAC | 0.769 RPM ratio (pull-down/input)
GATGATTGTTCTCCCAGCTGATGAATTTGAGATGTCGAGTAAACAAATTTTCCTAATCTTTCTGTTCAAGCGCCATCTAC | 0.935 RPM ratio (pull-down/input)
GATGATTGTTCTCCCAGCTGATGAATTCAACATATCGAGTAAACAAATTTTCCTAATCTTTCTGTTCAAGCGCCATCTAC | 1.08 RPM ratio (pull-down/input)
GATGATTGTTCTCCCAGCTGATGAATTTGAGATCTCGAGTAAACAAATTTTCCTAATCTTTCTGTTCAAGCGCCATCTAC | 0.779 RPM ratio (pull-down/input)
GATGATTGTTCTCCCAGCTGATGAATTTCTGCGATCGAGTAAACAAATTTTCCTAATCTTTCTGTTCAAGCGCCATCTAC | 0.931 RPM ratio (pull-down/input)
GATGATTGTTCTCCCAGCTGATGAATTCGATTTATCGAGTAAACAAATTTTCCTAATCTTTCTGTTCAAGCGCCATCTAC | 1.11 RPM ratio (pull-down/input)
GATGATTGTTCTCCCAGCTGATGAATTCTGATGATCGAGTAAACAAATTTTCCTAATCTTTCTGTTCAAGCGCCATCTAC | 0.991 RPM ratio (pull-down/input)
GATGATTGTTCTCCCAGCTGATGAATTATCGCCTTCGAGTAAACAAATTTTCCTAATCTTTCTGTTCAAGCGCCATCTAC | 1.02 RPM ratio (pull-down/input)
